# Screen size: about 310,000 compounds; about 14,000 (4.5%) showed an effect of 50% or more. The effect is printed as a negative number. This is one part of the list.
# Biological target: human ether-à-go-go-related gene (hERG) potassium channel (human, UniProt Q12809)
# Test: primary screen, population patch clamp on CHO cells stably expressing hERG
# 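Further: peak tail current of the secondary pulse compared with the same well before compound.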
# Sequence of human ether-à-go-go-related gene (hERG) potassium channel (Q12809 whole entry, looked up): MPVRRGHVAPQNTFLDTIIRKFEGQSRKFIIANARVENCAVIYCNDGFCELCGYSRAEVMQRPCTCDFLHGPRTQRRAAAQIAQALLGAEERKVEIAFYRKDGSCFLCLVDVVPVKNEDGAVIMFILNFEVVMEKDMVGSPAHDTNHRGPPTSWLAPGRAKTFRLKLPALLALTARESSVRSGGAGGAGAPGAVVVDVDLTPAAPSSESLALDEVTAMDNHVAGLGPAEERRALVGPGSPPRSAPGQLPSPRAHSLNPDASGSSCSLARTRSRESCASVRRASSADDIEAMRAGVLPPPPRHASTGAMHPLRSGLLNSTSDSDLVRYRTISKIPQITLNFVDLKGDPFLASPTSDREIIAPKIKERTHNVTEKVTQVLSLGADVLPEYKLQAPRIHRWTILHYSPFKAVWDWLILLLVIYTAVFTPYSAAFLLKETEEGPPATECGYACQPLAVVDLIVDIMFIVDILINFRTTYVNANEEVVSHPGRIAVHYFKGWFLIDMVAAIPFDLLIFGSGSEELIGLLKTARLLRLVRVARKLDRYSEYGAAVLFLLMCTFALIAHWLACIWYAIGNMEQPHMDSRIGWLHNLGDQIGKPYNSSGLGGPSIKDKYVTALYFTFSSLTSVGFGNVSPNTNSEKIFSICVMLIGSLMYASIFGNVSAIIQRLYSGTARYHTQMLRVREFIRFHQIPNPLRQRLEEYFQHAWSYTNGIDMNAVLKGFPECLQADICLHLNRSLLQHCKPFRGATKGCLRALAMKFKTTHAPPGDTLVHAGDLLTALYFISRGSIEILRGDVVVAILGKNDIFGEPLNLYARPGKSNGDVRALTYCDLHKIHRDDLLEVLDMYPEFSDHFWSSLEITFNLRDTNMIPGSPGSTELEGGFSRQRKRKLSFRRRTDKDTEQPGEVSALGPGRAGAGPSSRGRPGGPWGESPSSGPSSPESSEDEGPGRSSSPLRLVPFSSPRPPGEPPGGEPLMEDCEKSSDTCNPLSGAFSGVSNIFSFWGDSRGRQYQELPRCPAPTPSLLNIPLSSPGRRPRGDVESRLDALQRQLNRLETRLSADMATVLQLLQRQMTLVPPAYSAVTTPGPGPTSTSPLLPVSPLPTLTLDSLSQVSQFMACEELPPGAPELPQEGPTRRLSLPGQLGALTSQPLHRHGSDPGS
row,Structure (SMILES),"hERG current change (%, negative = inhibition) at 10uM"
1,CNC(=S)NNC(=O)c1ccc(C(C)(C)C)cc1,5.65%
2,COc1ccc(NC(=O)c2cn(-c3ccccc3)nc2-c2ccncc2)cc1,-1.51%
3,CCC(C)NC(=O)c1ccc(CS(=O)(=O)Cc2ccc(Cl)cc2)o1 (centres unmarked),-17.9%
4,Cc1ccccc1Cn1c(Cc2ccccc2)nc2ccccc21,-19.6%
5,CN(C)CCN(C(=O)c1ccc(S(=O)(=O)N(C)c2ccccc2)cc1)c1nc2ccc(Cl)cc2s1.Cl,-13%
6,COc1cc2c(cc1OC)C(c1ccccc1)N(S(C)(=O)=O)CC2 (centres unmarked),2.29%
7,Cc1ccc(C(O)(C(=O)NNc2ccc3ccccc3n2)c2ccc(C)cc2)cc1.Cl,5.9%
8,O=[N+]([O-])c1cccc(-n2nncc2-c2ccccc2)c1,-1.23%
9,CC(=O)COC(=O)c1cc(-c2ccc(C)cc2)nc2ccccc12,9.96%
10,C=C1CCc2c([nH]c3ccc(OCC(C)C)cc23)C1=O,17.2%
11,COc1ccc(OC)c(NC(=O)COC(=O)c2cc3c(s2)CCC3)c1,-2.09%
12,CCN(CC)CCNC(=O)c1cc(Cl)c(N)cc1OC.Cl,7.04%
13,CCOC(=O)CSc1nc2ccccc2n1CC(=O)N1CCN(c2ccccc2)CC1,-42%
14,O=C(Nc1ccc2c(c1)OCCO2)C1CCCN(S(=O)(=O)c2cnc[nH]2)C1 (centres unmarked),20.6%
15,COc1cccc(C2=NOC(C(=O)NCC3CCCO3)C2)c1 (centres unmarked),6.5%
16,COc1ccccc1NC(=O)Nc1ccc(Cc2ccncc2)cc1,-0.881%
17,CC(=O)c1ccc(OCC(O)CNCc2ccc3c(c2)OCO3)cc1 (centres unmarked),-26.1%
18,O=c1c2ccccc2nc(-c2ccccc2)n1-c1ccc(O)cc1,-19.8%
19,Cc1ccc(CNC(=O)CCS(=O)(=O)c2cc3c(cc2Cl)NC(=O)CO3)cc1,-8.89%

row,Structure (SMILES),"hERG current change (%, negative = inhibition) at 10uM"
1,COc1cccc(C(=O)NCC2CCCN2S(=O)(=O)c2cccs2)c1 (centres unmarked),-9.69%
2,CC(=O)c1c(C)oc2ccc(NS(=O)(=O)c3ccccc3)cc12,3.05%
3,CCNC(=S)NNC(=O)c1csc2ccccc12,3.85%
4,CSC1=N/C(=C\c2cccnc2)C(=O)N1c1ccccc1,-1.31%
5,CCCc1nc2ccccc2c(C(=O)OCC(=O)N2CCc3ccccc32)c1CC,9.89%
6,COc1cc2ccccc2cc1C(=O)Nc1ccccc1N1CCCC1,-4.16%
7,CN(C)c1cc(-c2ccccc2)nc(N)n1,-0.585%
8,CCOC(=O)C1CCN(C(=O)c2ccc(OC)cc2OC)CC1,-25.5%
9,CCN(CC)CCn1c(NC(=O)c2ccc(C)cc2)nc2ccccc21,-63.2%
10,COc1ccc(N2CCN(CC(=O)Nc3ncc(C)s3)CC2)cc1,9.71%
11,Cn1ncc2c(Nc3cccc4ccccc34)ncnc21,-6.03%
12,CC/C(=N\NC(=O)c1nnn(-c2nonc2N)c1-c1cccs1)c1ccccc1,24.3%
13,O=C1C=C(c2ccc(Oc3ccccc3)cc2)C[C@@H](c2ccc(Cl)cc2)C1,6.02%
14,Cc1cccc(OCCSc2nnc(-c3ccoc3C)n2C)c1,-30.4%
15,COCCn1c(CNc2ccc(F)cc2)nnc1SCC(=O)Nc1ccc(OC)cc1OC,-32.9%
16,Cc1ccc2nc(SCC(=O)Nc3cccc(S(=O)(=O)NC4=NCCCCC4)c3)[nH]c2c1,-10.7%
17,Cc1ccc(SC(C)C(=O)Nc2cccc(N(C)S(C)(=O)=O)c2)cc1 (centres unmarked),-4.89%
18,Cc1cc(C)c(S(=O)(=O)N2CCCC(C(=O)NC3CCCC3)C2)c(C)c1 (centres unmarked),-16.1%
19,COc1ccc(C2(CNC(=O)c3cccc([N+](=O)[O-])c3)CCOCC2)cc1,0.0345%

row,Structure (SMILES),"hERG current change (%, negative = inhibition) at 10uM"
1,CCCOCC(O)CC(Cc1ccccc1)C(=O)NN (centres unmarked),11.5%
2,O=C(Oc1ccccc1)c1cccnc1Oc1ccccc1,-9.7%
3,CCOc1nc(C)cc(C)c1S(=O)(=O)c1ccc(Cl)cc1,3.85%
4,Cc1noc(C)c1COc1cccc(C(=O)NC(C)(C)C)c1,30.9%
5,COc1ccc(C(=O)COC(=O)c2nc3nccc(C)n3n2)cc1F,-3.84%
6,CC1CCCN(c2c([N+](=O)[O-])c(=O)oc3ccccc23)C1 (centres unmarked),-43.1%
7,O=[N+]([O-])c1ccc2oc(-c3ccccc3)nc2c1,18.6%
8,Cc1ccc(NC(=O)CNc2ccc(Cl)c(Cl)c2)cc1S(=O)(=O)N(C)C,-13.4%
9,CCc1noc(C)c1C(=O)N1CCN(S(=O)(=O)c2ccc(C(C)=O)cc2)CC1,-7.91%
10,Cc1ccc(P(=O)(O)c2ccc(C)cc2)cc1,-4.49%
11,COc1ccccc1NC(=O)CC1COc2ccccc2O1 (centres unmarked),2.74%
12,Cc1cccc(C(=O)OC(C)C(=O)Nc2ccc(S(=O)(=O)Nc3ncccn3)cc2)c1C (centres unmarked),-3.74%
13,C=CCn1c(SCn2nnc3ccccc3c2=O)nnc1-c1ccc(F)cc1,-28.9%
14,Cc1ccc(Nc2ccc(S(=O)(=O)N3CCOCC3)cc2[N+](=O)[O-])c(C)c1,-26.4%
15,F[B-](F)(F)F.OCCCCC[NH+]=c1cc(-c2ccccc2)oc2ccc(Cl)cc12,-80.3%
16,CCn1c(=O)c(C(=O)NCCNCCO)c(O)c2ccccc21.Cl,5.89%
17,O=C(c1ccc(CSCc2ccccc2F)o1)N1CCN(c2ccc(N3CCOCC3)nn2)CC1,-66.7%
18,C=CCNC(=S)N/N=C/c1ccc(-c2ccc(Cl)cc2Cl)o1,1.88%
